Test results as given in article PMC4336329 (PLoS ONE, 2015).
The campaign covered roughly 310,000 compounds. About 14,000 (4.5%) showed an effect of 50% or more. The effect is printed as a negative number. The list shows a part of the results.

Each compound was assayed against human ether-à-go-go-related gene (hERG) potassium channel (human, UniProt Q12809) (assay: primary screen, population patch clamp on CHO cells stably expressing hERG).
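Also: peak tail current of the secondary pulse compared with the same well before compound.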

Sequence of human ether-à-go-go-related gene (hERG) potassium channel (Q12809 whole entry, looked up): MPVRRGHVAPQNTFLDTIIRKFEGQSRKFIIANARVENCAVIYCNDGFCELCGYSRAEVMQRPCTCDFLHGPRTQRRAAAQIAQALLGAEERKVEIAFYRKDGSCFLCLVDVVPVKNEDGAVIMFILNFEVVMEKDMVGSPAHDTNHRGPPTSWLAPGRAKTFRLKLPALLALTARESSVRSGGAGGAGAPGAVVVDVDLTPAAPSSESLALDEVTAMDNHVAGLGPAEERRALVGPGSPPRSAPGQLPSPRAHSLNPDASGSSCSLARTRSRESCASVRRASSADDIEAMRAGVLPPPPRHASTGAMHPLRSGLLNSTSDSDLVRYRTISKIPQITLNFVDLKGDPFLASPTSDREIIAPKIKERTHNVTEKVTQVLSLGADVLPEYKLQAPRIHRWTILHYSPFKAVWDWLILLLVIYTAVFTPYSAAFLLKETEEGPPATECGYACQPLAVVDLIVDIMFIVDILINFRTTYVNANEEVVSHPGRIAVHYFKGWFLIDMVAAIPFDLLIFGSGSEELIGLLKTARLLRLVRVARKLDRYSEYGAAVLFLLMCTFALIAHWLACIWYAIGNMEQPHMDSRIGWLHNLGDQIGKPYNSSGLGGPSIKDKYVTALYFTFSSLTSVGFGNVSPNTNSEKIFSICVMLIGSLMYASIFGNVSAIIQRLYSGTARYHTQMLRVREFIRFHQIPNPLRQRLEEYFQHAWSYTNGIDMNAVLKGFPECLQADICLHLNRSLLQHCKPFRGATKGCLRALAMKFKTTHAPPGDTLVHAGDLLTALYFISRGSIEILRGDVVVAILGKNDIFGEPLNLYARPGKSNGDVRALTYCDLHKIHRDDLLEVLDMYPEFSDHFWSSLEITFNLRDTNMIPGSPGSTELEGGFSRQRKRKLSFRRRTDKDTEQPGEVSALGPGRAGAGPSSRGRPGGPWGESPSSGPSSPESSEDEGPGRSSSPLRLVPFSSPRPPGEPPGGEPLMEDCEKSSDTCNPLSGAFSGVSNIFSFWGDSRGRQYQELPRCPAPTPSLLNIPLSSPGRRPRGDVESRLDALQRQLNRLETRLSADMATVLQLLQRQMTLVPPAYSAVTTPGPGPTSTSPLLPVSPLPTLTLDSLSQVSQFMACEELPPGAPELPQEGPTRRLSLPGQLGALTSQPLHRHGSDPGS

| Compound | hERG current change (%, negative = inhibition) at 10uM [%] |
| --- | --- |
| CCOc1ccc(C2CC(c3cccc(Cl)c3)n3nc(N)nc3N2)cc1 (centres unmarked) | 0.107 |
| CN(C)c1cc2c(cc1NS(=O)(=O)c1ccccc1)n(C)c(=O)n2C | 10.5 |
| O=S(=O)(Cc1ccc(Cl)cc1)N1CCN(c2ncccn2)CC1 | 13.2 |
| O=C(CCCn1cnc([N+](=O)[O-])n1)Nc1ccc(Cl)cc1Cl | -26.6 |
| Cc1cc(C(=O)CS(=O)c2ccc(F)cc2)cc(C)c1OC(=O)N(C)C (centres unmarked) | 16.7 |
| O=C(NC1CS(=O)(=O)CC1NCc1ccccc1)c1ccccc1 (centres unmarked) | 8.11 |
| COc1ccccc1CC(=O)Nc1ccc(C(=O)N2CCCCC2)cc1 | 2.21 |
| O=C(c1c(F)cccc1F)N(Cc1cccs1)C1CCCC1 | 7.71 |
| NC1=NC(c2ccc([N+](=O)[O-])cc2)N(c2ccc(F)cc2)C(N)=N1 (centres unmarked) | 13.8 |
| CC(C)(C)OC(=O)CC1(C#N)c2ccccc2C(Br)=CN1C(=O)c1ccccc1 (centres unmarked) | 8.71 |
| O=C1NC(Cc2ccccc2)C(=O)N1CC(=O)N1CCCc2ccccc21 (centres unmarked) | 6.98 |
| Cc1ccc(S(=O)(=O)N2CCOCC2)cc1C(=O)OCC(=O)Nc1ccc2c(c1)OCO2 | -10.9 |
| CC(NC(=O)CN1C(=O)NC(Cc2ccccc2)(Cc2ccccc2)C1=O)C12CC3CC(CC(C3)C1)C2 (centres unmarked) | 3.65 |
| CCOC(=O)COc1cc(=O)n(CC)c2ccccc12 | 3.92 |
| c1ccc(-n2c(-c3ccncc3)nnc2-c2cccs2)cc1 | -12.4 |
| CCN1C(=O)N[C@@H](c2cccc(F)c2)C(C(=O)OC)=C1C | 9.28 |
| COc1ccc(NC(=O)c2ccco2)cc1NC(=O)c1ccco1 | -27.3 |
| CN1CCN(CCc2nc3cc(NC(=O)COc4ccc([N+](=O)[O-])cc4)ccc3n2C)CC1 | 16.1 |
| COc1ccc(Cl)cc1N/C(N)=N/c1nc(C)cc(C)n1 | -84.2 |
| COc1cc(/C=N/Nc2ccc3ccccc3c2)ccc1OC(=O)c1ccco1 | 19 |
| COc1ccc2nc(N/C(N)=N/C(=S)Nc3cccc(C)c3)nc(C)c2c1 | 4.25 |
| COc1ccc(CN(C(=O)c2ccc3c(c2)OCCO3)C(C(=O)NC2CCCCC2)c2ccc3ncccc3c2)cc1 (centres unmarked) | -15.1 |
| O=[N+]([O-])c1cc(C(F)(F)F)ccc1NCCc1c[nH]c2ccccc12 | 7.06 |
